{"source": "paper PMC4336329", "about": "(PLoS ONE, 2015)", "note": "Among all 310,000 compounds or so, about 14,000 (4.5%) showed an effect of 50% or more. Effects have a minus sign here. The list shows a part of the results.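 Further: peak tail current of the secondary pulse compared with the same well before compound.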", "data": [{"biological_target": "human ether-à-go-go-related gene (hERG) potassium channel (human, UniProt Q12809)", "sequence (Q12809 whole entry, looked up)": "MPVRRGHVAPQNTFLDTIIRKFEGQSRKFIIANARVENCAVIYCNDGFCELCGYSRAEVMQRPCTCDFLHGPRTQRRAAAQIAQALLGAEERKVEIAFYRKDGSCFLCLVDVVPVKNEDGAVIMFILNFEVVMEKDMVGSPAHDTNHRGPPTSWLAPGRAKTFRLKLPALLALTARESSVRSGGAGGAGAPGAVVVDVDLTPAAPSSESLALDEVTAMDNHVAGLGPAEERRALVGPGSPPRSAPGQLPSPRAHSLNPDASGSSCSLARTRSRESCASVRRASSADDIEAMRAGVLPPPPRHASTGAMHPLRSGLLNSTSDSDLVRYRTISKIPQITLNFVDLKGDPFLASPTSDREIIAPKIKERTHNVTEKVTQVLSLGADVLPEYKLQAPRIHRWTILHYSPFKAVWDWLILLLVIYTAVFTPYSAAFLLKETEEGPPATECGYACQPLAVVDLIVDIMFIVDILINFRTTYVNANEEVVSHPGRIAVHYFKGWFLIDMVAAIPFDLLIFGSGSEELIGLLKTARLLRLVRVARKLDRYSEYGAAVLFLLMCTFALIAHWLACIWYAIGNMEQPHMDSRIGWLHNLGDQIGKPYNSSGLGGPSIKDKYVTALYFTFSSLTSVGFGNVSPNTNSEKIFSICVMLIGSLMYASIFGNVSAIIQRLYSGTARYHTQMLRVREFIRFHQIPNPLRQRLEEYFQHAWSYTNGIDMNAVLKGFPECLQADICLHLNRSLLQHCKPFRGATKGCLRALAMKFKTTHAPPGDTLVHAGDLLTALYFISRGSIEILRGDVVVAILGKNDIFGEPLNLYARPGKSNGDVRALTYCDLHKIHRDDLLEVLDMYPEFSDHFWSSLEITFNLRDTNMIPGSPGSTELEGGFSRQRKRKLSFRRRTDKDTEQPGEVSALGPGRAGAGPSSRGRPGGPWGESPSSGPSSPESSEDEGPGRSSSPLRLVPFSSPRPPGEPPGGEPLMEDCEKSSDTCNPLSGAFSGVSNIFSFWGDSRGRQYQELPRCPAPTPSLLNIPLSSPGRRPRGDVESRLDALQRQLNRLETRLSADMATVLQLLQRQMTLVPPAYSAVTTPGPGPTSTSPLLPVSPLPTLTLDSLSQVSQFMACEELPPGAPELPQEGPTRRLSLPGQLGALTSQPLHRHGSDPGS", "test": "primary screen, population patch clamp on CHO cells stably expressing hERG", "units": {"hERG current change (%, negative = inhibition) at 10uM": "%"}, "values": [{"smiles": "COc1ccc(C)cc1NC(=O)CC(NC(C)=O)c1ccccc1", "note": "(stereo not drawn)", "hERG current change (%, negative = inhibition) at 10uM": 12.9}, {"smiles": "CC(C)(C)OC(=O)N[C@@H](Cc1c[nH]c2ccccc12)c1nnc(SCC(N)=O)o1", "hERG current change (%, negative = inhibition) at 10uM": -3.96}, {"smiles": "CC(C)C[C@@]12C(=O)N(c3ccc(Br)cc3)C(=O)N1[C@H](c1ccc(Br)cc1)[C@@H]1C(=O)N(C(C)(C)C)C(=O)[C@@H]12", "hERG current change (%, negative = inhibition) at 10uM": -3.38}, {"smiles": "COc1ccc(OCC(=O)Nc2c(C(=O)N3CCN(C)CC3)oc3ccccc23)cc1", "hERG current change (%, negative = inhibition) at 10uM": -42}, {"smiles": "COc1ccc(NC(=O)N2CCCC(c3nc(-c4ccc(OC)cc4)no3)C2)cc1", "note": "(stereo not drawn)", "hERG current change (%, negative = inhibition) at 10uM": -4.38}, {"smiles": "S=C(Nc1ccccc1)N(CCN1CCOCC1)Cc1cccc(Cl)c1", "hERG current change (%, negative = inhibition) at 10uM": 7.59}, {"smiles": "CCc1c(C)nc(SCc2ccccn2)[nH]c1=O", "hERG current change (%, negative = inhibition) at 10uM": 13.3}, {"smiles": "COc1ccc(NC(=S)N(CCN(C)C)C(C)c2ccco2)cc1Cl", "note": "(stereo not drawn)", "hERG current change (%, negative = inhibition) at 10uM": -36.3}, {"smiles": "CC(=O)Oc1ccc(/C=c2\\sc3ncnn3c2=O)cc1", "hERG current change (%, negative = inhibition) at 10uM": 0.932}, {"smiles": "CCCOC1CCCN(Cc2nc(-c3ccc(C(=O)OC)cc3)no2)C1", "note": "(stereo not drawn)", "hERG current change (%, negative = inhibition) at 10uM": 2.56}, {"smiles": "O=C(NCc1cccnc1)C1CC(=O)N(C2CCCCC2)C1", "note": "(stereo not drawn)", "hERG current change (%, negative = inhibition) at 10uM": -3.78}, {"smiles": "COc1ccc(-c2nnn(CC(=O)NCc3ccccc3)n2)cc1OC", "hERG current change (%, negative = inhibition) at 10uM": 7.61}, {"smiles": "CCOC(=O)/C(C#N)=C/c1c(Oc2cc(C)cc(C)c2)nc2ccccn2c1=O", "hERG current change (%, negative = inhibition) at 10uM": 5.1}, {"smiles": "NC(=O)COC(=O)c1cc(=O)[nH]c2ccccc12", "hERG current change (%, negative = inhibition) at 10uM": 6.36}, {"smiles": "COc1cc(S(=O)(=O)NCc2ccccn2)c(OC)cc1Cl", "hERG current change (%, negative = inhibition) at 10uM": -1.73}, {"smiles": "Cc1nc2c(c(=O)[nH]1)C(c1ccccc1Cl)c1c(c3ccccc3oc1=O)O2", "note": "(stereo not drawn)", "hERG current change (%, negative = inhibition) at 10uM": 8.77}, {"smiles": "CC1=C(C(=O)Nc2ccc(C)cc2)C(c2ccco2)NC(=O)N1", "note": "(stereo not drawn)", "hERG current change (%, negative = inhibition) at 10uM": -4.51}, {"smiles": "CN(Cc1ccccc1)C(=O)c1ccc(NC(=O)Cc2cccc(NC(=O)C3CCN(C(=O)C4CCCCC4)CC3)c2)cc1", "hERG current change (%, negative = inhibition) at 10uM": 8.47}, {"smiles": "Oc1oc(-c2ccccc2Br)nc1/C=N/c1ccccn1", "hERG current change (%, negative = inhibition) at 10uM": 2.11}, {"smiles": "COc1ccc(N(C)S(=O)(=O)c2cccc(C(=O)Nc3cccc(C(=O)NC4CC4)c3)c2)cc1", "hERG current change (%, negative = inhibition) at 10uM": -11.3}, {"smiles": "COc1ccc(C(=O)N(Cc2ccco2)Cc2cccs2)c(O)c1", "hERG current change (%, negative = inhibition) at 10uM": -6.63}, {"smiles": "C#CCn1c(=NC(=O)CN2C(=O)CCC2=O)sc2cc(S(N)(=O)=O)ccc21", "hERG current change (%, negative = inhibition) at 10uM": 17.1}, {"smiles": "O=C(N/N=C/c1ccccc1O)c1ccc2c(c1)OCO2", "hERG current change (%, negative = inhibition) at 10uM": 23.9}, {"smiles": "CCOC(=O)CC(NC(=O)CCS(=O)(=O)c1ccc2c(c1)n(C)c(=O)c(=O)n2C)c1ccc(C)cc1", "note": "(stereo not drawn)", "hERG current change (%, negative = inhibition) at 10uM": 9.03}, {"smiles": "CCCc1cc(=O)oc2cc(C)cc(OCC(=O)Nc3cccnc3)c12", "hERG current change (%, negative = inhibition) at 10uM": -0.927}, {"smiles": "CC(C)C(NC(=O)CN(c1cccc(F)c1)S(C)(=O)=O)C(C)C", "hERG current change (%, negative = inhibition) at 10uM": 1.21}, {"smiles": "CS(=O)(=O)c1ccccc1C(=O)Nc1ccccc1Cc1ccccc1", "hERG current change (%, negative = inhibition) at 10uM": 11.9}, {"smiles": "CCOCCCNC(=O)C(NC(=O)c1ccc(=O)[nH]c1)c1ccc(C)cc1", "note": "(stereo not drawn)", "hERG current change (%, negative = inhibition) at 10uM": 8.03}, {"smiles": "O=C(NCc1ccccn1)Nc1cc(Cl)cc(Cl)c1", "hERG current change (%, negative = inhibition) at 10uM": 21.4}, {"smiles": "O=C(NCc1ccccn1)C(=O)NCC1OCCN1C(=O)c1ccc(Cl)cc1", "note": "(stereo not drawn)", "hERG current change (%, negative = inhibition) at 10uM": 8.81}, {"smiles": "CN(CCc1ccccn1)C(=O)Nc1ccc(C(C)(C)C)cc1", "hERG current change (%, negative = inhibition) at 10uM": -19.3}, {"smiles": "CCCCCC(=O)Nc1ccccc1N1CCN(c2ccccc2)CC1", "hERG current change (%, negative = inhibition) at 10uM": -0.752}, {"smiles": "CCc1ccc2[nH]c(=O)c(CN(Cc3ccccc3)Cc3nnnn3Cc3ccco3)cc2c1", "hERG current change (%, negative = inhibition) at 10uM": 12.6}, {"smiles": "CCN(C(=O)COC(=O)c1cc(Cl)ccc1OC)c1c(N)n(Cc2ccccc2)c(=O)[nH]c1=O", "hERG current change (%, negative = inhibition) at 10uM": 4.46}, {"smiles": "OCC1(Cc2cccc(F)c2)CCN(Cc2cccc3nccnc23)CC1", "hERG current change (%, negative = inhibition) at 10uM": -59.8}, {"smiles": "O=C(N/N=C/c1cccc(O)c1)N/N=C/c1cccc(O)c1", "hERG current change (%, negative = inhibition) at 10uM": 9.81}, {"smiles": "COCCN1CCN(c2cc(-c3ccccc3)nc3cc(-c4cccc(F)c4)nn23)CC1", "hERG current change (%, negative = inhibition) at 10uM": -5.02}, {"smiles": "COc1ccc2cc(S(=O)(=O)NCc3cccnc3)ccc2c1", "hERG current change (%, negative = inhibition) at 10uM": -8.18}, {"smiles": "CCCc1ccc(NS(=O)(=O)c2c(C)oc(C)c2C(=O)OC)cc1", "hERG current change (%, negative = inhibition) at 10uM": 6.25}, {"smiles": "O=C(C1CCCN(Cc2ccccc2F)C1)N1CCc2ccccc2C1.O=C(O)C(=O)O", "note": "(stereo not drawn)", "hERG current change (%, negative = inhibition) at 10uM": -22.6}, {"smiles": "CC(C)C12CN3CC(C(C)C)(CN(C1)C3c1cccnc1)C2=O", "note": "(stereo not drawn)", "hERG current change (%, negative = inhibition) at 10uM": -6.26}, {"smiles": "CCC(C)(C(=O)NC1CCCCC1)N(C(=O)c1ccccn1)c1ccc(C)cc1", "note": "(stereo not drawn)", "hERG current change (%, negative = inhibition) at 10uM": 5.82}, {"smiles": "COc1ccc(NC(=O)O/N=C/c2c(C)nn(C(C)(C)C)c2C)cc1", "hERG current change (%, negative = inhibition) at 10uM": -17.7}, {"smiles": "O=C(Cc1nc2ccccc2[nH]1)c1cccc([N+](=O)[O-])c1", "hERG current change (%, negative = inhibition) at 10uM": 10.6}, {"smiles": "COc1cc(-c2noc(C)c2/C=C/c2ccc(C(=O)O)cc2)cc(OC)c1OC", "hERG current change (%, negative = inhibition) at 10uM": -4.61}, {"smiles": "CCC(=O)Nc1ccc(NC(=S)NC(=O)c2cc3ccccc3o2)cc1", "hERG current change (%, negative = inhibition) at 10uM": 7.15}, {"smiles": "CO/N=C(/CS(=O)Cc1ccccc1Cl)c1ccc(Cl)cc1Cl", "note": "(stereo not drawn)", "hERG current change (%, negative = inhibition) at 10uM": -6.41}, {"smiles": "COc1ccc(NS(=O)(=O)c2cc(NC(=O)CCNC(C)=O)ccc2N2CCOCC2)cc1", "hERG current change (%, negative = inhibition) at 10uM": -8.01}, {"smiles": "OC(COc1cccc(OCC(O)CN2CCCC2)c1)CN1CCCC1", "note": "(stereo not drawn)", "hERG current change (%, negative = inhibition) at 10uM": -2.86}, {"smiles": "c1ccc(Oc2cccc(OCCn3cncn3)c2)cc1", "hERG current change (%, negative = inhibition) at 10uM": -12.7}, {"smiles": "C/C(=N/NC(=O)Nc1ccccc1)c1ccc(C)cc1", "hERG current change (%, negative = inhibition) at 10uM": -1.46}, {"smiles": "CCOc1ccccc1NC(=O)CSc1nc2cccnc2n1C", "hERG current change (%, negative = inhibition) at 10uM": -1.64}, {"smiles": "Cn1nc(C(F)(F)F)c2cc(C(=O)N3CCOCC3)sc21", "hERG current change (%, negative = inhibition) at 10uM": 25.8}, {"smiles": "COc1cc(C)nc(-n2nc(C)cc2OC)n1", "hERG current change (%, negative = inhibition) at 10uM": 14.6}]}]}
